The campaign covered roughly 46,000 compounds. About 60 (0.1%) were called active. Inconclusive results (about 3%) are left out. The call rests on the fitted dose curve; in most records, active means well fitted inhibition curve with a large enough effect; inconclusive means small, poorly fitted or top-dose-only effect; inactive means no such curve, though single readings can be large or run the other way. The list shows a part of the results.

The values that follow come from PubChem BioAssay AID1963576 (National Center for Advancing Translational Sciences (NCATS), 2024).

A short description of this experiment: Primary qHTS assay for Inhibitors of ovarian cancer metastasis using an organotypic tumor microenvironment (TME) model. Further: nearly all actives have a fitted effect of over 65% in size.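 On activity change, negative = inhibition: plate controls were DMSO wells for no effect and tomatine positive control wells for full effect.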 The following applies: SKOV3ip1-GFP adhesion/invasion on 3D omental model, fluorescence; series mostly up to 45.8 µM; activity change, negative = inhibition: at the top concentration. An outline of the steps:
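Primary human omental fibroblast/mesothelial 3D culture pre-formed 48 h. SKOV3ip1-GFP cells added with compounds (0.36-46 umol/L), incubated 2 h RT/16 h 37 C, fixed; GFP cells quantified at 488/509 nm.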
In general terms: In qHTS, concentration-response curves come from the screen itself.
Regarding `CCCCN(C)CCNC(=O)c1ccc2c(c1)NC(=O)CN2`, the “activity change, negative = inhibition” value was inactive: 1.9%.

For `Cc1cccc(C(=O)Nc2nc(-c3nnn(-c4cc(F)ccc4F)c3C)ns2)c1`, the “activity change, negative = inhibition” value is inactive: -13.2%.

Take `Cc1cccn2c(=O)c3cc(C(=O)N(Cc4ccccc4)C(C)C)sc3nc12`: the “activity change, negative = inhibition” value is inactive: -7.35%.

For `O=S(=O)(NCc1ccccc1Cl)c1ccc(N2CCCCS2(=O)=O)cc1`, the “activity change, negative = inhibition” value was inactive: 35%.

For `CC(=O)Nc1ccc(-c2nnc(SCC(=O)c3ccc([N+](=O)[O-])cc3)o2)cc1`, the compound was called inactive.

`Cc1ccc2ccc3cc(C(=O)N4CCN(c5ccccc5)CC4)nc3c2[nH]1`: the outcome was inactive.

For `Cc1ccc(NC(=O)C(=O)NCC(c2cccnc2)N2CCN(Cc3ccccc3)CC2)cc1` (stereo not given), the “activity change, negative = inhibition” value was inactive: 0.479%.

Regarding `CCc1ccccc1NC(=O)CSc1nc2c(oc3ccccc32)c(=O)n1-c1ccccc1F`, the “activity change, negative = inhibition” value is inactive: -3.09%.

Turning to `COc1ccc(-c2ccc3cc(C(=O)O)ccc3c2)cc1C12CC3CC(CC(C3)C1)C2`, the “activity change, negative = inhibition” value was inactive: 2.33%.

With `CC1CCN(S(=O)(=O)c2ccc3c(c2)N(CC(=O)O)C(=O)CO3)CC1`, the result was inactive.

For `CCOC(=O)c1ccccc1NC(=O)N1CCOc2ccc(Cl)cc21`, the compound was called inactive.

For the compound `Cc1cc(Cl)ccc1NC(=O)C1CCN(c2nnc(-n3c(C)ccc3C)s2)CC1`, the “activity change, negative = inhibition” value is inactive: -0.689%.

For `Cc1cccc(Cn2c(C)c(CNC3CCCCC3)c(C(=O)O)c2C)c1`, the “activity change, negative = inhibition” value was inactive: 16.7%.

With `COc1ccc(-c2cc(C(F)(F)F)n3nc(C(=O)NCC45CC6CC(CC(C6)C4)C5)cc3n2)cc1OC`, the outcome was inactive.

Turning to `COc1ccc(S(=O)(=O)N(CC(=O)Nc2cccc(C)c2)c2ccc(C)cc2)cc1OC`, the call was inactive.

`Cc1cc(C)c(NC(=O)CSc2nc(-c3ccc(F)cc3)nc3c2Cc2c(CO)cnc(C)c2O3)c(C)c1`: the “activity change, negative = inhibition” value was inactive: -0.0887%.

Turning to `O=C(NCCC1=CCCCC1)c1ccc2c(c1)N(Cc1cccc(Cl)c1)C(=O)c1ccccc1S2(=O)=O`, the “activity change, negative = inhibition” value is inactive: -7.49%.

In the case of `COc1ccc(N2CCN(c3ccc(-c4nc(-c5cccc(C)c5)no4)cc3[N+](=O)[O-])CC2)cc1`, the call was inactive.

On to `CC(=O)c1cc2c(cc1NC(=O)c1cnn(-c3ccc(C)cc3)c1-n1cccc1)OCO2`, for which the “activity change, negative = inhibition” value is inactive: -11.3%.

As for `O=C(Cn1ncc2c3ccccc3n(Cc3ccccc3F)c2c1=O)N1CCCCC1`, the “activity change, negative = inhibition” value was inactive: 0.191%.

As to `CCOc1ccc(CCNC(=O)c2[nH]c3cc(OC)ccc3c2Sc2ccccc2)cc1OCC`, the “activity change, negative = inhibition” value is inactive: -2.92%.

`CC(C)CN(CCCNC(=O)CN1N=C(c2ccccc2)CCC1=O)CC(C)C`: the “activity change, negative = inhibition” value is inactive: 15.3%.

As to `COc1ccccc1CNC(=O)c1ccc(N2CCCC2)c(NC(=O)NCc2ccc(F)cc2)c1`, the “activity change, negative = inhibition” value was inactive: -0.445%.

`CCOC(=O)C1=C(CN(CC)Cc2ccccc2)NC(=O)NC1c1ccc(OC(C)C)cc1` (stereo not given): the compound was called inactive.

Regarding `CCCCSCCCNC(=O)C1CCN(Cc2nc(-c3cccc(Br)c3)oc2C)CC1`, the “activity change, negative = inhibition” value was inactive: 0.627%.

Consider `CCOC(=O)CC(NC(=O)CCc1c(C)nc2ncnn2c1C)c1ccc(OC(C)C)cc1` (stereo not given), for which the compound was classed as inactive.

`CC(C)c1ccc(NC(=O)CCNS(=O)(=O)c2ccc3c(c2)CCCC(=O)N3)cc1`: the call was inactive.

In the case of `Cn1c(=O)[nH]c(=O)c2c1nc1n2CCN1c1ccccc1`, the outcome was inactive.

As to `Cc1nn(-c2ccc(N3CCCC3)nn2)c(C)c1CCC(=O)NCc1ccc(OC(C)C)cc1`, the “activity change, negative = inhibition” value is inactive: -4.99%.

Take `CCOc1ccc(C(=O)N2CCN(CCc3ccccn3)CC2)cc1`: the “activity change, negative = inhibition” value is inactive: 0.173%.

For the compound `CCOc1ccc(S(=O)(=O)c2cn(Cc3ccc(OC)cc3)c3ccc(F)cc3c2=O)cc1`, the “activity change, negative = inhibition” value was inactive: 0.555%.

Consider `CCOc1ccc(NC(=O)Cn2c(=O)cc(C)c3c(C)nn(-c4cccc(Cl)c4C)c32)cc1`, for which the “activity change, negative = inhibition” value is inactive: 12.1%.

In the case of `Cc1ccc(N2CCN(S(=O)(=O)c3nnc(NC(=O)c4ccc(C(C)C)cc4)s3)CC2)cc1`, the “activity change, negative = inhibition” value was inactive: 5.87%.

Consider `Cc1ccc(-c2nc(S(=O)(=O)c3ccc(C)cc3)c(N3CCCCCC3)o2)cc1`, for which the “activity change, negative = inhibition” value is inactive: -21.8%.

Turning to `COc1ccc(CNC(=O)C2CCC(CNS(=O)(=O)c3cccs3)CC2)cc1` (stereo not given), the “activity change, negative = inhibition” value is inactive: -0.471%.

Turning to `CCOC(=O)c1ccccc1NC(=O)CSc1cn(CC(=O)N2CCOCC2)c2ccccc12`, the “activity change, negative = inhibition” value was inactive: -14.4%.

Turning to `CCOc1ccc(Nc2nc(C)c(NC(=O)c3cccc(OC)c3)c(Nc3ccc(OCC)cc3)n2)cc1`, the “activity change, negative = inhibition” value is inactive: -17.3%.

For `Cc1ccccc1CSc1nc2cccnc2n1Cc1ccc(C(=O)NC2CC2)cc1`, the “activity change, negative = inhibition” value is inactive: -2.72%.

Regarding `COC(=O)C1=C(c2ccccc2)c2ccccc2S(=O)(=O)N1CC(=O)Nc1ccc(OC)cc1OC`, the “activity change, negative = inhibition” value was inactive: -3.38%.

`Cc1cc(=O)[nH]c2nnc(SCc3ccc(Cl)cc3)n12`: the “activity change, negative = inhibition” value was inactive: -3.37%.

As for `CCOc1ccc(NC(=O)CN2C(C(=O)OC)=C(c3ccccc3)c3cc(Cl)ccc3S2(=O)=O)cc1`, the “activity change, negative = inhibition” value was inactive: -2.15%.

On to `COc1ccccc1-c1cc(NC(=O)COc2ccc(C)c(C)c2)n(-c2ccccc2)n1`, for which the “activity change, negative = inhibition” value was inactive: -2.44%.

For `COc1ccccc1NC(=O)C1CCN(S(=O)(=O)c2cn(C)cn2)CC1`, the “activity change, negative = inhibition” value was inactive: -6.88%.

Consider `Cc1cccc(N(C)S(=O)(=O)c2c(C(=O)N3CCCCCC3)c(C)n(C)c2C)c1`, for which the “activity change, negative = inhibition” value is inactive: 11.5%.

In the case of `Cc1cc2nc(-c3cccc(NC(=O)COc4ccc(Cl)c(C)c4)c3)oc2cc1C`, the “activity change, negative = inhibition” value was inactive: -1.19%.

Consider `COc1ccc(NC(=O)c2c(NCc3cccc(F)c3)sc3c2CCCC3)c(OC)c1`, for which the “activity change, negative = inhibition” value was inactive: 0.0408%.

For the compound `O=C(NCc1ccccc1)C1CCN(S(=O)(=O)c2ccc3[nH]c(=O)ccc3c2)CC1`, the compound was classed as inactive.

As to `Cc1ccc(CNC(=O)CN2CCN(Cc3ccc(F)cc3)C2=O)cc1`, the “activity change, negative = inhibition” value was inactive: -4.87%.

Regarding `Cc1ccc(Cl)cc1-n1ncc2c(N3CCC(C)CC3)ncnc21`, the “activity change, negative = inhibition” value is inactive: 11.2%.

For `Cc1cccc2c1-c1sc(C(=O)N3CCN(c4cccc(Cl)c4)CC3)cc1CO2`, the “activity change, negative = inhibition” value was inactive: -25.8%.

For `CC(C)OCc1cc(CN2CCN(c3ccccc3)CC2)c(O)c2ncccc12`, the “activity change, negative = inhibition” value is inactive: 6.33%.

On to `COc1ccc(-c2cc(C(F)(F)F)nc(SCC(=O)NCc3ccc(Cl)cc3)n2)cc1`, for which the “activity change, negative = inhibition” value is inactive: 0.358%.

Turning to `COc1ccc(OC)c(NC(=O)CN2CCCN(Cc3cc(C)ccc3C)S2(=O)=O)c1`, the result was inactive.

For the compound `CCOc1ccc(CCNC(=O)c2cnc3sc(N4CCCCCC4)nn3c2=O)cc1`, the “activity change, negative = inhibition” value is inactive: 10.8%.

For `Cc1ccc(C)c(C(=O)COC(=O)CCCC(=O)Nc2cc(C(F)(F)F)ccc2Cl)c1`, the “activity change, negative = inhibition” value was inactive: 9.51%.

Regarding `Cc1cccc(CC(=O)NCCc2csc(-c3ccc(C(F)(F)F)cc3)n2)c1`, the “activity change, negative = inhibition” value was inactive: 2.24%.

In the case of `CCOC(=O)c1ccc(N2C(=O)c3n[nH]c(-c4ccco4)c3C2c2ccc(F)cc2)cc1` (stereo not given), the call was inactive.

For the compound `COc1ccccc1CNC(=O)C(CC(C)C)N1Cc2ccccc2C1=O` (stereo not given), the “activity change, negative = inhibition” value was inactive: 5.86%.

For `O=C(CSc1nccn1Cc1ccc(Cl)cc1)NCc1ccccc1`, the “activity change, negative = inhibition” value is inactive: -7.34%.

For the compound `CC1=C(C(=O)Nc2ccc(F)cc2F)C2(CCCCCC2)OC1=O`, the result was inactive.
